Out of some 52,000 compounds screened, about 1,700 (3.3%) were called active. Rule as the data show it: active = survival mostly below about 52% (no sharp cut-off); inactive = mostly above about 56%. Some of the results follow.

For the assay, the system named is Wild type. Kind of assay: growth inhibition of S. aureus wild type versus tarO mutant, primary screen, teichoic acid synthesis inhibitors, RN4220, OD600 (AID 463173). The conditions noted are these: S. aureus RN4220 wild type/DeltatarO growth, OD600, 18 h, active compounds read low, screened at 18.75 µg/mL (by protocol).
As for `O=C(N1CCCC1)N1c2ccccc2Sc2ccccc21`, the survival is inactive: 109%. Turning to `CCOC(=O)c1cc(-c2ccc(F)cc2)n(CCC(=O)NC2CCCCC2)c1C`, the survival is inactive: 77%.

For the molecule `CC(=O)Nc1ccc(C(=O)CSc2nnc3ccc4ccccc4n23)cc1`, the survival was inactive: 86%. Regarding `CCOc1ccc(NC(=O)NCCN2CCN(c3ccccc3F)CC2)cc1`, the survival was inactive: 72%.

In the case of `O=S(=O)(NCc1ccc(Cl)cc1)c1ccc(N2CCCCS2(=O)=O)cc1`, the survival is inactive: 132%.

As for `c1ccc2c(c1)nc(N1CCOCC1)c1ccccc12`, the survival was inactive: 127%. Take `COc1cccc(NC(=O)c2ccc(-c3nc(COc4ccc(C)cc4)c(C)o3)cc2)c1`: the survival is inactive: 70%. With `Cc1cc(=O)n2nc(N3CCC(C(=O)Nc4ccc(Br)cc4F)CC3)sc2n1`, the survival is inactive: 92%. The result for `Cc1ccc2c(c1)c1c(c(=O)n(-c3ccccc3C)c(=O)n1CC(=O)NCC1CCCO1)n2C` (centres undefined) reads inactive: 66%. Consider `O=C(O)c1cccnc1N1CCOCC1`, for which the survival was inactive: 111%. Then `Cc1ccc(C)c(NC(=O)CCCN2C(=O)C(c3ccccc3)Oc3cccnc32)c1` (centres undefined), with inactive: 89%.

Turning to `Cc1nc2nc[nH]n2c(=O)c1NC(=O)CC12CC3CC(CC(C3)C1)C2`, the survival was inactive: 101%. For the molecule `COC(=O)CN(c1ccccc1)S(=O)(=O)c1ccc(OC)cc1`, the survival was inactive: 102%.

As for `Nc1c(C(=O)Nc2ccc(Br)cc2)sc2nc(-c3ccncc3)ccc12`, the survival was inactive: 103%. Turning to `O=C(CNC(=O)c1ccc(Cl)cc1)OCc1cc(=O)n2nc(C3CCCCC3)sc2n1`, the survival was inactive: 138%. For `COc1cc2c(=O)n(CCC(=O)NCC3CCCO3)c(=O)n(CC(=O)Nc3ccc(F)cc3)c2cc1OC` (centres undefined), the survival is inactive: 129%.

Turning to `CCc1ccc(-n2c(CCC(=O)O)ccc2-c2ccc(F)cc2)cc1`, the survival is inactive: 68%.

In the case of `COc1ccc(S(=O)(=O)N(CC(=O)Nc2cccnc2)c2ccc(C)cc2)cc1OC`, the survival was inactive: 71%. Then `CCN(CC)NC(=S)Nc1ccccc1`, with inactive: 101%. Take `Cc1ccc(O)c(NC(=O)CCS(=O)(=O)c2nc(-c3ccc4c(c3)OCO4)cc(C(F)(F)F)n2)c1`: the survival was inactive: 98%. On to `CCOC(=O)CSc1nnc(CNc2ccc(C)cc2C)n1-c1ccccc1`, for which the survival is inactive: 105%.

For `CCc1ccc(CNC(=O)CCn2c(=O)c3cccn3c3ccc(F)cc32)cc1`, the survival is inactive: 113%. Take `COc1cccc(=O)c2c(C)oc(C)c12`: the survival is inactive: 107%. Consider `Cc1ccc(-n2nnc(-c3nsc(NC(=O)c4ccc(C)c(C)c4)n3)c2C)cc1`, for which the survival was inactive: 121%. Then `CCn1c(CN2CCCCC2)nc2cc(NC(=O)c3ccc([N+](=O)[O-])cc3)ccc21`, with inactive: 81%. As for `CCOc1ccccc1NC(=O)COc1ccc(S(=O)(=O)NC2CCCCC2)cc1`, the survival is inactive: 75%. With `O=C(Nc1ccc(F)c(F)c1)C1CCCN1S(=O)(=O)c1cccc2nsnc12` (centres undefined), the survival was inactive: 77%. For `CCN(CC)c1ccc(/C=N/NC(=O)CC(C)C)cc1`, the survival is inactive: 113%. Turning to `N#Cc1ccccc1CNCc1cccs1`, the survival was inactive: 113%. With `CCOc1ccccc1CNC(=O)c1cc(-c2ccc(C)c(C)c2)nc2ccccc12`, the survival is inactive: 71%. As to `COc1cccc(C=Nc2cnn(C)c2C(N)=O)c1O`, the survival was inactive: 105%. Regarding `CCCS(=O)(=O)N1CCC(n2c(C(F)(F)F)nc3cccnc32)CC1`, the survival is inactive: 78%.

Take `Cc1ccsc1CN(C(=O)c1oc2ccccc2c1C)C1CCS(=O)(=O)C1` (centres undefined): the survival was inactive: 83%. The result for `Cc1ccc(CNC(=O)C(=O)NCC(c2cccnc2)N2CCN(c3ccccc3F)CC2)cc1` (centres undefined) reads inactive: 78%; that for `COc1cccc2sc(N3CCN(C(=O)CCS(=O)(=O)c4ccc(F)cc4)CC3)nc12`, inactive: 87%; that for `O=C(c1ccccc1)N1CCN(C(=O)c2cc3ccccc3oc2=O)CC1`, inactive: 106%. The result for `CC(C)Oc1ccc(CNC(=O)C2CCN(c3nc4ccccc4n(C)c3=O)CC2)cc1` reads inactive: 96%; that for `CCc1ccc(C2NC(=O)c3[nH]nc(-c4cccc(OC)c4)c32)cc1` (centres undefined), inactive: 74%; that for `Cc1ccc(S(=O)(=O)C(=O)Nc2cccc3nsnc23)cc1`, inactive: 93%. As to `Cc1ccc(NC(=O)Cn2nnc(C(=O)NCCc3ccccc3)c2N)cc1C`, the survival is inactive: 64%. The result for `Cc1oc2ncn(C)c(=O)c2c1C(=O)NCCCN(Cc1ccccc1)C(C)C` reads inactive: 81%; that for `CCn1c(=O)c2sccc2n2c(CCC(=O)Nc3ccc(OC)c(Cl)c3)nnc12`, inactive: 71%. In the case of `Cc1ccc(C(=O)Nc2nc(-c3ccccc3)ns2)cc1`, the survival is inactive: 68%. Then `CS(=O)(=O)N1CCc2cc(C(=O)Nc3cccc(F)c3)ccc21`, with inactive: 81%. For `COc1cccc(C(=O)N2CCN(Cc3cccc(C)c3)CC2)c1OC`, the survival is inactive: 109%. For the molecule `COc1ccccc1CC(=O)Nc1ccc2nc(N3CCC(C)CC3)cc(C)c2c1`, the survival is inactive: 71%. `Cc1ccc(C)c(Cn2c3ccccc3c3cnn(CC(=O)NC(C)c4ccccc4)c(=O)c32)c1` (centres undefined): the survival is inactive: 83%.

With `CCCNC(=O)CN1CCN(c2ncc(NC(=O)c3ccc(Cl)cc3)cc2C(=O)O)CC1`, the survival was inactive: 101%. The result for `CCOC(=O)c1ccc(-c2ccc(/C=C(\C#N)C(=O)Nc3ccc(C)cc3OC)o2)cc1` reads inactive: 92%; that for `COCCNC(=O)Cn1ncc2c(C)n(Cc3ccc(C)cc3)c(C)c2c1=O`, inactive: 83%; that for `CCCCN1C(=O)C(O)(c2c(C)[nH]c3ccccc23)c2ccccc21` (centres undefined), inactive: 69%.

Regarding `CCCOc1ccccc1C1Oc2nc(SC)nnc2-c2ccccc2N1C(C)=O` (centres undefined), the survival is inactive: 73%.

As for `Cc1cccc(-n2ncc3c(N4CCCCCC4)ncnc32)c1`, the survival is inactive: 73%.

Consider `Cc1ccc(CN(Cc2ccco2)C(=O)c2oc3ccc(C)cc3c2C)cc1`, for which the survival was inactive: 92%. In the case of `Cc1ccc(C)c(CNC(=O)c2cnc3sc(N4CCCC4)nn3c2=O)c1`, the survival is inactive: 75%. Regarding `CCOc1ccc(C(=O)c2cn(Cc3ccc(F)cc3)c3ccc(F)cc3c2=O)cc1`, the survival is inactive: 86%. Turning to `CSc1ccc(C2c3c(oc4ccccc4c3=O)C(=O)N2CCCN2CCOCC2)cc1` (centres undefined), the survival was inactive: 73%.

In the case of `CC(C)(C)C(=O)OC1=CN(Cc2ccccc2)S(=O)(=O)c2ccccc21`, the survival is inactive: 75%. The result for `CCc1ccc(NC(=O)CSc2nc3ncccc3[nH]2)cc1` reads inactive: 75%.

These data come from PubChem BioAssay AID463173 (ICCB-Longwood Screening Facility, Harvard Medical School, 2010).
